Measured values: paper PMC5671938, “Multimerin-2 is a ligand for group 14 family C-type lectins CLEC14A, CD93 and CD248 spanning the endothelial pericyte interface” (Oncogene, 2017)
These are yes or no findings as the source states them, for the method shown. Some binding calls cover weakened binding; strength is not graded here.

Sequences of proteins named here, by UniProt entry; tags and fusion partners are left off. Residues count along the entry.
UniProt Q86T13, residues 22-397: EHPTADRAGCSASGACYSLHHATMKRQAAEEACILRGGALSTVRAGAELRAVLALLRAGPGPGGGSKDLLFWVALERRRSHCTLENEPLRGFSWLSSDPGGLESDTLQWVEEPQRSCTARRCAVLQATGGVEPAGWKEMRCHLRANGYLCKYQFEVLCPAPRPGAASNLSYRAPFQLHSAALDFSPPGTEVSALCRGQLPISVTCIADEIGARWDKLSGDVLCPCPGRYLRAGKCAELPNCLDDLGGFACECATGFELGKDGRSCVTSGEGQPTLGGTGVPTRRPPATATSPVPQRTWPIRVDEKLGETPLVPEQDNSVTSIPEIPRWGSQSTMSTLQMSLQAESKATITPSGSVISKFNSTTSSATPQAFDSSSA

Columns and labels:
Test in all cases: far-Western; lysates of HEK293T transfected with His-tagged MMRN2 constructs separated by SDS-PAGE under reducing conditions; probed 1 h with CLEC14A-ECD-Fc (2 μg/ml); only the binder purified
[1] = molecular target: T1, MMRN2 coiled-coil and C1q construct (MMRN2^CC-C1q) (human) (UniProt Q9H8L6)
T1 sequence: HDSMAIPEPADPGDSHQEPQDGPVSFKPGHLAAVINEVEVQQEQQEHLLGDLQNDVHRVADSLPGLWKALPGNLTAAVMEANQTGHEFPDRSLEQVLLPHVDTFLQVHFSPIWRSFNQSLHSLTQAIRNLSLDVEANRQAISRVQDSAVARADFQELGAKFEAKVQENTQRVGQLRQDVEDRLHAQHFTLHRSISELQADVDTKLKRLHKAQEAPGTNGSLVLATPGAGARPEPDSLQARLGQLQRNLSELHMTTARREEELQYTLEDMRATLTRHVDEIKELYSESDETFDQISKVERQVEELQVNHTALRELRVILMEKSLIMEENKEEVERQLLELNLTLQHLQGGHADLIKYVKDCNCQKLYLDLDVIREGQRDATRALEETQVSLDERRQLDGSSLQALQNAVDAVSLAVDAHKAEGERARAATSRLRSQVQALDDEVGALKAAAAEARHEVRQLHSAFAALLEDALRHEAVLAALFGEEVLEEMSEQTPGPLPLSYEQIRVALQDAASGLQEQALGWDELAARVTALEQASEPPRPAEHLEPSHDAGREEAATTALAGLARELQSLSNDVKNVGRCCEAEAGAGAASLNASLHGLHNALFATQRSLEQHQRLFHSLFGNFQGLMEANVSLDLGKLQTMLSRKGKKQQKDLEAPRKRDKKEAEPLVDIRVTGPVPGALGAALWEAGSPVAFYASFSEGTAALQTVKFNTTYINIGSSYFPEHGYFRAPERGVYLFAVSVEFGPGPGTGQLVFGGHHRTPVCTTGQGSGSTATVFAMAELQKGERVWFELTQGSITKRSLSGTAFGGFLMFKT

MMRN2^487-820 (human) = molecular target: T2, MMRN2^487-820 (human) (UniProt Q9H8L6)
T2 sequence: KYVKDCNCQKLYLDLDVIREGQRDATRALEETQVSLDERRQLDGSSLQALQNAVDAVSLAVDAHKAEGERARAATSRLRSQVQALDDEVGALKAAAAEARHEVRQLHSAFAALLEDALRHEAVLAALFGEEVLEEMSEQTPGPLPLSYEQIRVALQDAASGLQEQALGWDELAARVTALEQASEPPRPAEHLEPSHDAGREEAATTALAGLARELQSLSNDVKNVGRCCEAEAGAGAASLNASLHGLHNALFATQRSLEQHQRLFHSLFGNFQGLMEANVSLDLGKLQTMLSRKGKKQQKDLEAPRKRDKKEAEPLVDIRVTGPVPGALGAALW

MMRN2^133-486 (human) = molecular target: T3, MMRN2^133-486 (human) (UniProt Q9H8L6)
T3 sequence: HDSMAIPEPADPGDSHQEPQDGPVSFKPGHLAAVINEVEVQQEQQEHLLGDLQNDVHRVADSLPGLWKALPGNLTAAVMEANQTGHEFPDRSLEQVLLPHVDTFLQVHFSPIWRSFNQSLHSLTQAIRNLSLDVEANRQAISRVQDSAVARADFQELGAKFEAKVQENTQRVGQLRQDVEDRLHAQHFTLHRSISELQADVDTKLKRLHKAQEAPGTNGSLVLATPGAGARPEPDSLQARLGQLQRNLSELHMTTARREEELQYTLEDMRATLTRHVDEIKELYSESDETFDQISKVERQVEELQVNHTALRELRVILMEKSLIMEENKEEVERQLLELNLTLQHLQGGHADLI

- binding [1]: binds
- binding (MMRN2^487-820 (human)): binds
- binding (MMRN2^133-486 (human)): no binding (tested: 2 μg/ml)
Substance: recombinant CLEC14A extracellular domain with an Fc tag (CLEC14A-ECD-Fc) (from UniProt Q86T13 22-397) (Fc fusion)
